# Screen size: about 310,000 compounds; about 14,000 (4.5%) showed an effect of 50% or more. The effect is printed as a negative number. This is one part of the list.
# Biological target: human ether-à-go-go-related gene (hERG) potassium channel (human, UniProt Q12809)
# Assay: primary screen, population patch clamp on CHO cells stably expressing hERG
# 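Note: peak tail current of the secondary pulse compared with the same well before compound.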
# human ether-à-go-go-related gene (hERG) potassium channel, sequence (Q12809 whole entry, looked up): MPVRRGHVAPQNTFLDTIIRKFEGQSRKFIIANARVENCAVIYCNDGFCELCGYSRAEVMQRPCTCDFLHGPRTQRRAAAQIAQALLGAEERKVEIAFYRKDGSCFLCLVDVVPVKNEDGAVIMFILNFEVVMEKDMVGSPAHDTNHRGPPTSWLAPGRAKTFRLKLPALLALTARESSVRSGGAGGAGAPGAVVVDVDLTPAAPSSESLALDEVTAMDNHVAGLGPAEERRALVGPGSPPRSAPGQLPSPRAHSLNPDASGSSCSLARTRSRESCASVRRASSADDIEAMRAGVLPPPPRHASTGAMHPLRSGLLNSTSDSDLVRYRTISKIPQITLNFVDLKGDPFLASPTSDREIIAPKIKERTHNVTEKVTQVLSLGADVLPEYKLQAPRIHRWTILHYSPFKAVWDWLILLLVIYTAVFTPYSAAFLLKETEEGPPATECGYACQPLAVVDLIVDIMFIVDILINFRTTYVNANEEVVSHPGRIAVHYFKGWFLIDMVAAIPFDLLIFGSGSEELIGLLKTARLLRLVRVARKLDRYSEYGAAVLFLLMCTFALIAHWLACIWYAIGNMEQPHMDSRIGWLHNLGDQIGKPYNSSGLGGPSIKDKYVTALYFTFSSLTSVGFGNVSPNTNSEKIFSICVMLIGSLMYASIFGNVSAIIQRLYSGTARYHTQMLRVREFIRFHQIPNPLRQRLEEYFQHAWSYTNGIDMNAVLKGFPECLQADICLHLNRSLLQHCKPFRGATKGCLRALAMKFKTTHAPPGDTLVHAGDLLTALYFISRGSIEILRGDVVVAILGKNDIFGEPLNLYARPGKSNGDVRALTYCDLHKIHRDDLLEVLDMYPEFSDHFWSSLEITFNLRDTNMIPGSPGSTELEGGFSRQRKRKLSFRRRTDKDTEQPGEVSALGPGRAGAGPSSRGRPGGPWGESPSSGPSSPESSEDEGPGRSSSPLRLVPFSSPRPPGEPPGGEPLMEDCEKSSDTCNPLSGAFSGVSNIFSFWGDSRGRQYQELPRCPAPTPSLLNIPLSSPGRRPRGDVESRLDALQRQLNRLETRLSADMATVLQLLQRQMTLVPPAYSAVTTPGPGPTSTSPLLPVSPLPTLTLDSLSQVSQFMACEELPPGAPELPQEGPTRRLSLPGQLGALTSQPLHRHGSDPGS
row,SMILES,"hERG current change (%, negative = inhibition) at 10uM [%]"
1,CCO/C=N/c1c(C#N)c(CC#N)nn1-c1ccccc1,-8.25
2,O=C(CSc1nnc(CNC(=O)c2cccs2)o1)Nc1ccc(Br)cc1,2.46
3,COc1ccccc1N1CCN(C(=O)CSc2nc3ncnc(N)c3[nH]2)CC1,21.3
4,COc1cccc(C(=O)O/N=C(\N)c2ccncc2)c1,7.52
5,CCc1cccc(CC)c1N(COC)C(=O)Cn1ccccc1=N.Cl,-1.37
6,CCCCn1c(SCC(=O)NC2CC(C)(C)NC(C)(C)C2)nc2cc(S(N)(=O)=O)ccc21.Cl,-0.109
7,Cc1ccc2cc(-c3noc(C4CCCO4)n3)c(=O)[nH]c2c1 (stereo not shown),1.17
8,COc1ccc(C(c2sc3ncnn3c2O)N2CCN(c3ccccc3F)CC2)cc1OC (stereo not shown),-29.6
9,CCc1nc(C)cn1S(=O)(=O)c1cc(C)c(OC)c(C)c1C,-24.6
10,C=CCOc1ccc(/C=N/NC(C)=O)cc1OCC,-0.233
11,Cc1ccc(S(=O)(=O)Nc2ccc(C(N)=O)cc2)cc1[N+](=O)[O-],1.17
12,Cc1cccc(S(=O)(=O)Nc2ccncc2)c1,22.1
13,Cc1ccc(NC(=O)Nc2ccc(Cl)cc2)c(Br)c1,12.2
14,Clc1nc(N2CCOCC2)ncc1Br,14.2
15,CCC(C)c1ccccc1N1CC(C(=O)Nc2ccccc2N2CCCC2)CC1=O (stereo not shown),-0.559
16,O=C(CN1C(=O)C2CC=CCC2C1=O)OCC(=O)c1ccc(Cl)c([N+](=O)[O-])c1 (stereo not shown),-3.83
17,CCCCN(CCCC)CCNC(=O)CNC(=O)c1cccs1,6.83
18,O=C(O)CSC(=S)N1CCCCC1,7.25
19,COc1cccc(C(=O)N2CCC(C(=O)NCc3ccc(C)cc3)CC2)c1,-36.3
20,CCOC(=O)C(=O)NCC(c1cccs1)S(=O)(=O)c1ccc(F)cc1 (stereo not shown),-5.48
21,CCn1ccnc1CN1CCN(CC=C(C)C)C(CCO)C1 (stereo not shown),17.3
22,CCC/C(=C1/c2ccccc2C(=O)N1c1ccccc1)c1ccc2c(c1)OCO2,14.5
23,Cc1ccccc1C(=O)NNC(=O)C1CCCN(c2ncccn2)C1 (stereo not shown),1.65

row,SMILES,"hERG current change (%, negative = inhibition) at 10uM [%]"
1,c1ccc(-c2nnc(-c3ccco3)n2-c2ccccc2)cc1,-5.09
2,Cc1ccc(SC(C)C(=O)N2CCC(C(N)=O)CC2)cc1 (stereo not shown),20.1
3,COc1ccc(NC(=O)Cn2nnc(C(=O)NCCc3ccc(OC)c(OC)c3)c2N)c(OC)c1,11.6
4,CCO/C(C)=C1\C(=O)Nc2ccccc21,9.79
5,CC(C)n1c(O)c(N=NC(=O)Cn2ccc(C(F)(F)F)n2)c2ccccc21,2.32
6,COc1ccccc1N1CCN(C2CCCN(C(=O)CN3CCCCC3=O)C2)CC1 (stereo not shown),8.94
7,CCc1ccc(S(=O)(=O)Nc2ccc(-c3ccc4nncn4n3)cc2)s1,-6.08
8,CCCn1c(=O)c2c(nc3n2CCN3Cc2ccco2)n(C)c1=O,-5.94
9,Cn1cnc2c(=O)[nH]cc([N+](=O)[O-])c21.O,15.8
10,Cc1cc(=O)oc2cc(OC(C)C(=O)NCC3CCC(C(=O)O)CC3)c(Cl)cc12 (stereo not shown),8.95
11,CCCc1nnc(SCC(=O)N2CCCC(C)C2)n1CCOC (stereo not shown),16.5
12,Cc1cc(C)n2nc(-c3cccc(Br)c3)cc2n1,5.31
13,N#CCCN(C(=O)Nc1ccccc1)c1ccccc1,13.7
14,Cc1nc(SC2CC(=O)N(c3cc(Cl)cc(Cl)c3)C2=O)nc2c1CCCC2 (stereo not shown),2.14
15,CC1=CC2=NC(=O)CC(C)(C(=O)N(CC(=O)NC3CCCC3)c3cc(C)cc(C)c3)N2C=C1 (stereo not shown),17.9
16,CCCCC(=O)Nc1cccc2c1C(=O)N(c1ccccc1)C2=O,-12.4
17,Cc1c(C(=O)OCC(=O)N2CC(=O)Nc3ccccc32)oc2ccc(Br)cc12,-3.05
18,CCN(CC)C(=O)c1cccc(C)c1,0.757
19,CS(=O)(=O)Nc1ccc(C(=O)N2CCN(c3ccccc3F)CC2)cc1,-68.1
20,CCCc1cc(=O)[nH]c(SCC(=O)Nc2ccc(Br)cc2Br)n1,12.2
21,Cc1ccc(-c2nc3ccccc3c(=O)n2N)cc1,-5.67
22,COc1cccc(CNC(=O)C2CCN(c3cnccn3)CC2)c1,-12.4
23,CC(C)C(=O)Nc1ccc(-c2nc3ncccc3o2)cc1,-3.36

# Reference: article PMC4336329 (PLoS ONE, 2015)
